In all, about 360,000 compounds went through this assay and about 2,600 (0.72%) were called active. This list was built around the results that the source calls inconclusive (neither active nor inactive); the mix of calls is not that of the screen. Calls come from the whole dose curve; as a rule, active = well fitted inhibition curve with a large enough effect; inconclusive = small, poorly fitted or top-dose-only effect; inactive = no such curve, though single readings can be large or run the other way. Where the call is inconclusive, the potency comes from a doubtful curve fit.
Assay: Primary qHTS for Inhibitors of ATXN expression; note: nearly all actives have a fitted effect of over 55% in size
Settings: HEK-293 ATXN2-luciferase reporter, luminescence, 24 h; activity change, negative = inhibition: at 57 µM (top of the series)
Procedure, shortened: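 ATXN2-luciferase reporter cells (luciferase flanked by upstream and downstream ATXN2 gene portions) were treated 24 h at 37 °C with compounds at up to 57 uM. SteadyGlo luminescence gave expression; GF-AFC fluorescence gave viability.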
% is set by controls: 0 for no effect and ±100 for the full control effect; potency is the fitted concentration of half-maximal effect; tags give direction and shape of the fitted curve.

Potency, inactive:
CC(C)N1CCC(C)(C(=O)Nc2ccc(-n3cccc3)cc2)C1 (stereo not given)
Cc1nccn1C(c1ccccc1)c1ccccc1
O=C(CN1C(=O)c2cccc3cccc1c23)N1CCN(c2ccccc2)CC1
O=C(c1cncc(Br)c1)N1CCN(c2ccc(N3CCOCC3)nn2)CC1
CCn1c(CCc2ccccc2)nc2ccccc21
COc1ccc(N=CC2=C(O)c3ccccc3C2=O)cc1
Cc1nn(-c2ccccc2)c(C)c1NC(=O)COC(=O)c1ccc(Cl)c(S(N)(=O)=O)c1
O=C(c1cc([N+](=O)[O-])cc([N+](=O)[O-])c1)N(Cc1nnc(-c2ccccc2Cl)o1)C1CC1
CCN1CCN(C(CCc2ccccc2)C(=O)NC2CCCCC2)CC1 (stereo not given)
CCN1CCN(c2ccc(S(=O)(=O)N3CCCC3)cn2)CC1
CC(C)C[C@@H]1CN=C(N)N1C[C@@H]1CCCN1C[C@@H](C(C)C)N1C[C@@H](Cc2ccccc2)N(CCCC2CCCC2)C1=N
O=C1CN(C(=O)c2ccc(S(=O)(=O)N3CCCCC3)cc2)C(c2ccc(F)cc2)c2cc(Cl)ccc2N1 (stereo not given)
CC1=NN(c2nc(-c3ccc(F)cc3)cs2)C(=O)C1
CC(C)(C)CNC(=O)c1cccc2c1C(=O)c1ccc(-c3cc4ccccc4o3)cc1S2(=O)=O
CCN(CC)C(=O)c1ccc(-c2cccs2)s1
CN(C)CCN(C(=O)C1=COCCO1)c1nc2ccc(F)cc2s1
Cc1sc(NC(=O)c2ccco2)c(CN2CCCCC2)c1C
CC(=O)Oc1ccc(C(=O)Nc2ccc3c(c2)OCCO3)cc1
Cc1ccccc1C(=O)N1CCC(C(=O)OCc2ccccn2)CC1
O=C(C=Cc1ccccc1)Nc1ccccc1
COc1ccc(/C=C/c2cc(=O)c3cc(Cl)ccc3o2)cc1
COc1cc(C2=NOC(C(=O)NCc3ccc(F)cc3)C2)cc(OC)c1OC (stereo not given)
Cc1ccc(CN(c2ccc(C(=O)Nc3cccnc3)cc2)S(C)(=O)=O)cc1
Cc1ccc(C(=O)NCCC(C)C)cc1NC(=O)c1nsc2ccccc12
CCOC(=O)C1=C(C)NC(=O)NC1c1c(OC)ccc2ccccc12 (stereo not given)
COc1ccc(C(=O)NN/C(C)=C/C(=O)c2ccccc2)cc1

Potency, inconclusive:
O=C(/C=C/c1ccc(OCCCF)cc1)Nc1ccnc(-c2ccncc2)n1 37.7 µM [inhibitor, single point]
COc1cccc(NC(=S)/C(=C(\[O-])c2cc(C)n(-c3ccccc3F)c2C)[n+]2ccc(N(C)C)cc2)c1 28.2 µM [inhibitor, partial curve]
COc1ccc2cc(-c3nc4ccc(C(=O)O)cc4[nH]3)c(=O)oc2c1 0.708 µM [inhibitor, full curve, poor fit]
Cn1nc(-c2ccc(C(=O)Nc3ccc(F)cc3)cc2)c2ccccc2c1=O 10 µM [inhibitor, partial curve]
Cc1cccc(NS(=O)(=O)c2ccc(NC(=O)CN(c3cc([N+](=O)[O-])ccc3C)S(C)(=O)=O)cc2)c1 31.6 µM [inhibitor, single point]
Cn1cc(C(=O)c2ccc(Cl)cc2Cl)cc1C(=O)N/N=C(\N)COc1ccc(Cl)cc1Cl 39.8 µM [inhibitor, single point]
O=C(Nc1ccc(Cl)cc1)N1CCCN(Cc2ccc(F)cc2)C1 35.5 µM [inhibitor, single point]
CCc1ccccc1NC(=O)Nc1cccn(Cc2ccccc2F)c1=O 0.474 µM [inhibitor, full curve, poor fit]
CSc1nc(-c2ccccc2)nc(C(Cl)Cl)n1 10 µM [inhibitor, partial curve]
Cc1cc(-c2ccccc2)nc2cc(C(=O)N(Cc3ccccc3)Cc3ccccc3)nn12 39.8 µM [inhibitor, single point]
Cc1cccc(-c2ccc3[nH]c4c(c3c2)CCN2C[C@@H]([C@H](C)OC(=O)Nc3ccccc3C)[C@@H](N(C)C(=O)Nc3ccccc3C)C[C@@H]42)c1 31.6 µM [inhibitor, single point]
CCCn1c(SCC(=O)NCc2ccc(OC)cc2)n[nH]c1=O 39.8 µM [inhibitor, single point]
COc1ccc(C(=O)/C=C/C(=O)N(CC(=O)NC2CCCCC2)Cc2cccs2)c(O)c1 4.23 µM [inhibitor, partial curve, poor fit]
N#CCSc1nnc(COc2cccc3ccccc23)n1-c1ccccc1 11.2 µM [inhibitor, partial curve]
Cn1nccc1C(=O)N1CCCC(C(=O)c2cccc3ccccc23)C1 (stereo not given) 1.12 µM [inhibitor, partial curve, poor fit]
COc1ccc(S(=O)(=O)Nc2cccc3ccc(O)cc23)cc1 37.7 µM [inhibitor, single point]
Cc1ccc(S(=O)(=O)N(C)C)cc1NC(=O)C(C)N(C)CCOc1ccc(Cl)cc1 (stereo not given) 15.8 µM [inhibitor, partial curve]
Cc1cccc(C)c1Nc1sc(C(=O)c2ccccc2)c(N)c1C(=O)Nc1ccc(F)cc1 39.8 µM [inhibitor, single point]
COc1cc(NC(=O)c2cc(C)on2)cc(C(=O)Nc2cccc(C(F)(F)F)c2)c1 28.2 µM [inhibitor, single point]
C=CC[C@@H](Cc1ccc(F)cc1)C(=O)OC[C@H]1CCCN1C(=O)[C@H](CC=C)CC(=O)N(CCO)Cc1ccccc1 39.8 µM [inhibitor, single point]
COc1ccc(-c2c[n+]3c4n2CCCCC4=C(c2ccc(Br)cc2)C3)cc1 31.6 µM [inhibitor, partial curve, poor fit]
COc1cc2nc(N3CCN(c4cc(C)ccc4C)CC3)nc(N)c2cc1OC 31.6 µM [inhibitor, partial curve, poor fit]
COC(=O)CSc1nnc(SCc2ccc(OC)cc2)s1 23.8 µM [inhibitor, partial curve, poor fit]
Cc1nc(-c2ccc(F)cc2)sc1CCNC(=O)c1ccc(OC(C)C)cc1 39.8 µM [inhibitor, single point]
CC(C)Nc1ccc(Nc2ccnc3cc4ccccc4cc23)cc1 31.6 µM [inhibitor, partial curve, poor fit]
Cc1cc2cc(CNC(=O)c3ccc(S(=O)(=O)N4CCCCC4)cc3)ccc2n1C 15.8 µM [inhibitor, partial curve, poor fit]
Cc1ccc(C(C)C)c(OCc2ccc(C(=O)N/N=C/c3ccc(O)c(O)c3)cc2)c1 20 µM [inhibitor, partial curve, poor fit]
COc1ccc(Oc2c(Cl)cnn(-c3ccc(C)cc3)c2=O)cc1 39.8 µM [inhibitor, single point]
C[C@H](CO)N1C[C@H](C)[C@@H](CN(C)CC2CCCCC2)Oc2c(NC(=O)C3CC3)cccc2C1=O 22.4 µM [inhibitor, partial curve, poor fit]
NC(c1ccccc1)c1csc(Nc2ccc(C(F)(F)F)cn2)n1 (stereo not given) 39.8 µM [inhibitor, single point]
CCOc1ccccc1Nc1nc(-c2sc(NC(=O)c3ccco3)nc2C)cs1 5.01 µM [inhibitor, partial curve]
C#CCOCCOCCOCCNc1nc(N2CCOCC2)nc(N2CCN(C(=O)CCCCCCCCCCNC(=O)[C@@H]([C@H](C)CC)n3cc(CCCCCN)nn3)CC2)n1 39.8 µM [inhibitor, single point]
COc1ccc(-c2ccc(-c3nc4ccc(C)cn4c3NC3CCCCC3)cc2OC)cc1 35.5 µM [inhibitor, single point]
CCc1cc(C(=O)Nc2ncccc2O)sc1C 22.4 µM [inhibitor, single point]

Potency, active:
NC(N)=N/N=C/c1ccc(OCc2ccc(Cl)cc2Cl)cc1 22.4 µM
CCOC(=O)c1c(-c2ccccc2)oc2cc(CN(C)C)c(O)c(CN(C)C)c12 14.1 µM
COC(=O)C1=C(C)N(Cc2ccccc2)C(=NCc2cccc(C(F)(F)F)c2)N[C@H]1c1cccc(F)c1 31.6 µM
O=C(O)c1cc(N/N=C/c2ccc3c(c2)OCCO3)ccc1Cl 4.47 µM
COc1ccc(CCCC(=O)N/N=C/c2cccc(OC)c2O)cc1C 12.6 µM
C=CC(=O)N1C/C(=C/c2ccc(Cl)cc2)C(=O)/C(=C\c2ccc(Cl)cc2)C1 2.82 µM
c1nc(CCO[C@H]2CCCCO2)cc2cc3c(cc12)OCO3 11.2 µM
NC(c1csc(NC(=O)c2cccc(OC(F)(F)F)c2)n1)c1ccccc1Cl (stereo not given) 31.6 µM
O=C(NC1CCCCC1)C(c1cccnc1)N(C(=O)CCl)c1ccc(F)cc1 (stereo not given) 3.98 µM

Activity change, negative = inhibition, inactive:
O=C(NNc1ccccc1)C(=O)NNS(=O)(=O)c1ccc([N+](=O)[O-])cc1 -3.77% [at 11.3 µM]

Reference: PubChem BioAssay AID1745845 (National Center for Advancing Translational Sciences (NCATS), 2022)
